According to article PMC4336329 (PLoS ONE, 2015):
In all, about 310,000 compounds went through this assay and about 14,000 (4.5%) showed an effect of 50% or more. The effect is printed as a negative number. The list shows a part of the results.

These compounds were tested against human ether-à-go-go-related gene (hERG) potassium channel (human, UniProt Q12809) (assay: primary screen, population patch clamp on CHO cells stably expressing hERG).
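Further: peak tail current of the secondary pulse compared with the same well before compound.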

Chain of human ether-à-go-go-related gene (hERG) potassium channel (Q12809 whole entry, looked up): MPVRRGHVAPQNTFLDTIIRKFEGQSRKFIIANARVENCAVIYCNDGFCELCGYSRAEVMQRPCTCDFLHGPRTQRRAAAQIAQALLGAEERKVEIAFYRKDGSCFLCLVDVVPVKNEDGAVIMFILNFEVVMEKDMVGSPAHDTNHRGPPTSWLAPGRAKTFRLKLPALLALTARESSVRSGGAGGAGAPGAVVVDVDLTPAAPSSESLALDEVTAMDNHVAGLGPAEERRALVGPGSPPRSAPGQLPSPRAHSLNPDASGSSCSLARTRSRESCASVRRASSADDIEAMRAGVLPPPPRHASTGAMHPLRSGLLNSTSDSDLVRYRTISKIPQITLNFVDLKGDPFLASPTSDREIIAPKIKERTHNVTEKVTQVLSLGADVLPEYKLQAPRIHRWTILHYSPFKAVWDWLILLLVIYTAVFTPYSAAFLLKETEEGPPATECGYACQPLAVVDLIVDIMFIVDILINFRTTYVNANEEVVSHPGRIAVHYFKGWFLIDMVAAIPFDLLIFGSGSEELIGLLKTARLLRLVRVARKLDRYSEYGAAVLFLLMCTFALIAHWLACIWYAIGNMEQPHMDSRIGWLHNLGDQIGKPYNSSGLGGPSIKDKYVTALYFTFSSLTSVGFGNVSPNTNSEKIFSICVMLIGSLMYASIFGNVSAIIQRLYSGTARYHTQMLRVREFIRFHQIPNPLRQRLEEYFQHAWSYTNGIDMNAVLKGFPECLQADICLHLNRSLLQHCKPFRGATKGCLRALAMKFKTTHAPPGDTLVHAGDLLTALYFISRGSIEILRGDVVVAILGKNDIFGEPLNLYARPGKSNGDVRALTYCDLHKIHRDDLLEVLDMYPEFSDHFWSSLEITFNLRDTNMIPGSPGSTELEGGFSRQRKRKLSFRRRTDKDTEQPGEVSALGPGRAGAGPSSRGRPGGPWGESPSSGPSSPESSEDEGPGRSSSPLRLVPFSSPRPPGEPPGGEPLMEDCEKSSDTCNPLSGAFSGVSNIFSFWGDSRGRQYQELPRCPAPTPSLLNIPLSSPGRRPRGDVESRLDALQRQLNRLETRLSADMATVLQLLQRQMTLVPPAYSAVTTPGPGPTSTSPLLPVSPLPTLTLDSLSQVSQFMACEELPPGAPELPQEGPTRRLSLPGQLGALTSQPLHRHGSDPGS

First: Cc1ccccc1-n1nc2c(c1NC(=O)C1CCCC1)CS(=O)(=O)C2
Second: O=C(Nc1cccc(C(F)(F)F)c1)C1CCCCC1
The “hERG current change (%, negative = inhibition) at 10uM” value of the first is higher: 3.73% for the first, -5.61% for the second.

Compared with `COc1ccc2ccccc2c1C(O)c1nccn1C` (stereo not shown), `COc1ccccc1Nc1c2ccccc2nc2ccccc12` is lower in “hERG current change (%, negative = inhibition) at 10uM” value: -31.9% for the first, -71% for the second.

Going from `Nn1c(SCC(=O)N2CCCc3ccccc32)nnc1-c1ccc(Cl)cc1` to `CCCc1cc(=O)[nH]c(SCC(=O)N2CCCc3ccccc32)n1`, the “hERG current change (%, negative = inhibition) at 10uM” value rises from -3.32% to 0.491%.

Going from `COc1ccc2c(CC(=O)NCc3cccs3)coc2c1` to `COc1ccc(CCC(=O)Nc2cc3c4c(c2)CC(=O)N4CCC3)cc1`, the “hERG current change (%, negative = inhibition) at 10uM” value falls from 4.22% to -19.1%.

Compared with `O=C(NCCc1c[nH]c2ccccc12)OCCCCOC(=O)NCCc1c[nH]c2ccccc12`, `Cc1ccccc1C(=O)c1cccn1CC(=O)NCc1ccco1` is lower in “hERG current change (%, negative = inhibition) at 10uM” value: 4.25% for the first, -0.496% for the second.

Going from `O=C(CCC(=O)OCc1ccc(C(=O)Oc2ccc(Cl)cc2)cc1)Nc1ccccc1` to `O=C(COC(=O)CNC(=O)c1ccc(Cl)cc1Cl)NNC(=O)c1ccccc1`, the “hERG current change (%, negative = inhibition) at 10uM” value falls from 15.5% to -4.3%.

Going from `COc1ccc(S(=O)(=O)N2CCCC(C(=O)O)C2)cc1` (stereo not shown) to `COc1cccc(C(=O)Nc2nnc(S(=O)(=O)N3CCCC3)s2)c1`, the “hERG current change (%, negative = inhibition) at 10uM” value rises from -0.188% to 12.6%.

Going from `O=C(c1ccc(C(F)(F)F)cc1)N1CCCCC1` to `CC(C)[C@H](NC(=O)N1CCn2c1nc1ccccc12)C(=O)N1CCCCC1`, the “hERG current change (%, negative = inhibition) at 10uM” value falls from 2.64% to 1.33%.

Compared with `O=P(O)(O)c1ccccc1OCCOCCOc1ccccc1P(=O)(O)O`, `COc1cc(NC(=O)C(c2ccccc2)c2ccccc2)c(C(=O)O)cc1OC` is higher in “hERG current change (%, negative = inhibition) at 10uM” value: 5.9% for the first, 16.7% for the second.

Going from `C=CCn1c(O)c(C(CC)=Nc2cccc(C(F)(F)F)c2)c(=O)[nH]c1=O` to `COc1ccc(CCn2c(N)cc(=O)[nH]c2=O)cc1OC`, the “hERG current change (%, negative = inhibition) at 10uM” value rises from -17% to 9.78%.

Going from `CC(=O)Nc1ccc2c(c1)nc(C)n2Cc1ccccc1` to `CC(C)CC(=O)Nc1cccc(-c2nc3ccccc3[nH]2)c1`, the “hERG current change (%, negative = inhibition) at 10uM” value falls from 10.1% to -16.5%.

Going from `COc1ccc2nc(C)cc(SCC(=O)Nc3c(C)cc(C)cc3C)c2c1` to `COC(=O)c1cnn(-c2cc(Oc3cccc(C)c3)ncn2)c1N`, the “hERG current change (%, negative = inhibition) at 10uM” value falls from 4.77% to 1.04%.

Compared with `Cc1cccc(NC(=O)c2cc3ccccc3c(=O)o2)n1`, `O=C(CNC(=O)c1ccco1)OCC(=O)c1ccc2ccccc2c1` is lower in “hERG current change (%, negative = inhibition) at 10uM” value: 20.8% for the first, -1.28% for the second.

Compared with `O=C(Cn1nnc2ccccc21)c1ccccc1`, `CSc1ccccc1NC(=O)CSc1nnnn1-c1ccccc1SC` is lower in “hERG current change (%, negative = inhibition) at 10uM” value: -7.57% for the first, -8.55% for the second.

Going from `COc1ccc2nc(N(CCN(C)C)C(=O)c3ccc(C(=O)c4ccccc4)cc3)sc2c1.Cl` to `Cc1noc(C)c1CSCC(=O)Oc1ccc(N(C)S(=O)(=O)c2ccccc2)cc1`, the “hERG current change (%, negative = inhibition) at 10uM” value rises from -39.2% to -3.47%.

Compared with `Cc1cc(-c2ccccc2)nc(Oc2cccc(C(F)(F)F)c2)c1S(C)(=O)=O`, `COc1ccccc1-c1cnn2c(NCCc3ccccc3)cc(C)nc12` is higher in “hERG current change (%, negative = inhibition) at 10uM” value: 1.13% for the first, 18.5% for the second.

Going from `Cc1ccc(/C=C/c2ccc3cccc(O)c3n2)s1` to `Cc1ccc(/C=C/c2ccc(=O)n(Cc3ccccc3Cl)n2)cc1`, the “hERG current change (%, negative = inhibition) at 10uM” value falls from 25.6% to 18.6%.

Going from `Cc1ccc(Oc2ccc(S(=O)(=O)Nc3ccc(C(=O)O)cc3)cc2)cc1` to `COc1ccccc1NC(=O)c1ccccc1S(=O)(=O)c1ccc([N+](=O)[O-])cc1`, the “hERG current change (%, negative = inhibition) at 10uM” value falls from 3.04% to -2.21%.

First: Cc1csc(NC(=O)CCCNC(=O)c2ccc(Cl)cc2)n1
Second: Cn1c(SCC(=O)NNC(=O)c2ccc(Cl)cc2)nnc1-c1cccnc1
The “hERG current change (%, negative = inhibition) at 10uM” value of the first is lower: -23.6% for the first, 17.2% for the second.

Compared with `Clc1cccc(Cl)c1C1Nc2cccc3cccc(c23)N1`, `c1ccc2c(CSCCc3ccncc3)cccc2c1` is lower in “hERG current change (%, negative = inhibition) at 10uM” value: 6.69% for the first, -17.6% for the second.

First: Cl.c1cc2n(c1)-c1c(ccc3c1OCO3)CNC2c1ccc2c(c1)OCO2 (stereo not shown)
Second: O=C(Nc1ccc2c(c1)OCO2)C1CC(c2ccc(Cl)cc2)=NO1 (stereo not shown)
The “hERG current change (%, negative = inhibition) at 10uM” value of the first is lower: -19.2% for the first, 2.27% for the second.

Compared with `Cc1ccc(C2=NN(C(=O)CNCCO)C(c3cccs3)C2)cc1` (stereo not shown), `CCCc1cc(C(=O)Nc2ccn(Cc3ccc(C)cc3)n2)no1` is higher in “hERG current change (%, negative = inhibition) at 10uM” value: -14.8% for the first, -6.47% for the second.

Compared with `N#C/C(=C\c1cccnc1)c1ccc(Br)cc1`, `N#CNC(=Nc1ccccc1F)SCc1ccc(C(=O)O)cc1` is higher in “hERG current change (%, negative = inhibition) at 10uM” value: -5.44% for the first, 3.01% for the second.

Going from `CCOC(=O)c1cc(CC)sc1/N=C/C1=C(O)CCCC1=O` to `CC1=C(C(=O)OCCOC(C)C)C(c2cc3c(cc2Br)OCO3)C2=C(CCCC2=O)N1` (stereo not shown), the “hERG current change (%, negative = inhibition) at 10uM” value rises from -26.2% to -20.2%.

First: Cc1nc(CCNC(=O)CC2C(=O)NCCN2CC(C)(C)C)nc2c1CCC2 (stereo not shown)
Second: COc1ccc(NC(=O)Cn2nc(C(F)(F)F)c3c2CCCC3)c(OC)c1
The “hERG current change (%, negative = inhibition) at 10uM” value of the first is lower: 2.61% for the first, 16.8% for the second.

First: COC(=O)[C@@H](NC(=O)CCc1nnc(-c2ccsc2)o1)C(C)C
Second: O=C(CN1C(=O)C2CCCCC2C1=O)OCc1nnc(-c2ccccc2)o1 (stereo not shown)
The “hERG current change (%, negative = inhibition) at 10uM” value of the first is lower: 3.86% for the first, 13.4% for the second.

Going from `Cc1oc(-c2cccs2)nc1CN1CCC(c2ccccc2)CC1` to `COc1cccc(CN2CCN(CCc3ccccc3)C(CCO)C2)c1OC` (stereo not shown), the “hERG current change (%, negative = inhibition) at 10uM” value rises from -66.5% to -34.8%.

Going from `CC(=O)N[C@H]1[C@H]([C@H](O)[C@H](O)CO)OC(C(=O)O)=C[C@@H]1O` to `CC(=O)CC(=O)C1C(=O)N(C)C(=O)N(C)C1=O`, the “hERG current change (%, negative = inhibition) at 10uM” value rises from 3.96% to 17.5%.

First: Cc1cc(NC(=O)C(C)SCC(=O)Nc2ccccc2OC(F)F)no1 (stereo not shown)
Second: COc1ccccc1N/C(N)=N/c1nc(CSc2nc3ccccc3s2)cc(=O)[nH]1
The “hERG current change (%, negative = inhibition) at 10uM” value of the first is lower: -6.62% for the first, -1.08% for the second.

Going from `Cc1cc(C)cc(N(C(=O)CNC(=O)c2ccco2)C(C(=O)NC2CCCCC2)c2ccncc2)c1` (stereo not shown) to `CCOC(=O)C1CCCN(C(=O)CNC(=O)Cn2ccc3ccccc3c2=O)C1` (stereo not shown), the “hERG current change (%, negative = inhibition) at 10uM” value falls from -10% to -11%.

Going from `O=C1N=C(N2C=CC(=C3C=CNC=C3)C=C2)/C(=C/N=NC(=O)c2ccccc2O)S1` to `O=C1NC(Cc2ccccc2)c2nc3cc(F)ccc3c(=O)n2-c2ccc(Cl)cc21` (stereo not shown), the “hERG current change (%, negative = inhibition) at 10uM” value rises from 5.08% to 5.57%.

Going from `CCS(=O)(=O)n1nc(-c2ccc(OC)cc2)nc1N` to `Cc1nn(C)c(C)c1CS(=O)(=O)c1ccccc1`, the “hERG current change (%, negative = inhibition) at 10uM” value falls from 11.6% to 7.61%.

Going from `Cc1nn2c(=S)[nH]nc2[nH]c1=O` to `Cc1cnc(NC(=O)COc2ccc3c(c2)CCC3)s1`, the “hERG current change (%, negative = inhibition) at 10uM” value falls from 20.9% to 17.3%.

Going from `O=C(Nc1cc([N+](=O)[O-])ccc1N1CCOCC1)c1ccco1` to `NC(=O)CC(NC(=O)c1ccc(Br)cc1)c1ccc(N2CCC(Br)CC2)c([N+](=O)[O-])c1` (stereo not shown), the “hERG current change (%, negative = inhibition) at 10uM” value rises from -25.6% to 1.28%.

First: O=C1CCC(=O)N1CN(Cc1ccco1)CN1C(=O)CCC1=O
Second: COCCN1Cc2cccc(C(=O)NC(C)CCc3ccco3)c2C1=O (stereo not shown)
The “hERG current change (%, negative = inhibition) at 10uM” value of the first is higher: 8.44% for the first, -10.8% for the second.

First: CC(C)(Oc1ccc(Cl)cc1)C(=O)NCCCn1ccnc1
Second: CCn1c(Cc2ccccc2)nnc1SCC(=O)Nc1ccc(S(N)(=O)=O)cc1
The “hERG current change (%, negative = inhibition) at 10uM” value of the first is lower: -21.2% for the first, 2.13% for the second.

First: S=c1nc[nH]c2c1sc1nc(-c3ccccc3)c3c(c12)CCCC3
Second: O=C1CSC(c2cn(-c3ccccc3)nc2-c2ccccc2)N1Cc1ccco1 (stereo not shown)
The “hERG current change (%, negative = inhibition) at 10uM” value of the first is higher: 27.9% for the first, -19% for the second.

Going from `OCC1(Cc2ccc(F)cc2F)CCCN(CCCc2ccccc2)C1` (stereo not shown) to `NNC(=O)CCN1CCN(Cc2ccccc2)CC1`, the “hERG current change (%, negative = inhibition) at 10uM” value rises from -82.9% to 17%.

Going from `O=C(COc1ccc(Cl)cc1Cl)Nc1nc2n(n1)C(c1ccccc1)CC(=O)N2` (stereo not shown) to `Cc1cc(Br)cc(Br)c1OCC(=O)NNC(=O)CCC(=O)NCc1ccccc1`, the “hERG current change (%, negative = inhibition) at 10uM” value rises from -4.02% to 18.1%.

Compared with `O=C(CCCCCn1c(=O)[nH]c2ccsc2c1=O)NCc1ccc(F)cc1`, `C=CCOc1ccc(C2C(C(=O)c3ccco3)=C(O)C(=O)N2c2nnc(C)s2)cc1` (stereo not shown) is higher in “hERG current change (%, negative = inhibition) at 10uM” value: 2.96% for the first, 20.7% for the second.

Going from `Cc1ccc(S(=O)(=O)N(Cc2cc3ccccc3[nH]c2=O)CC2CCCO2)cc1` (stereo not shown) to `COc1ccccc1NS(=O)(=O)c1cc(N)ccc1N1CCCCC1`, the “hERG current change (%, negative = inhibition) at 10uM” value falls from 10.5% to -1.36%.

Compared with `CCN(CC)S(=O)(=O)c1cccc(-c2nnc(SCC(=O)c3cc(C)n(C)c3C)o2)c1`, `CCc1c(C(=O)Nc2ncn(Cc3cccc(C)c3)n2)csc1C` is lower in “hERG current change (%, negative = inhibition) at 10uM” value: -25.5% for the first, -37.8% for the second.

Going from `COc1ccc(/C=N/NC(=O)Nc2cccc3nsnc23)cc1OC` to `COc1cc(/C=N/Nc2ccc(F)cc2F)cc(OC)c1OC`, the “hERG current change (%, negative = inhibition) at 10uM” value falls from 4.47% to -5.55%.

Compared with `CCC(C)c1ccc(NC(=O)COc2c(F)c(F)c(C(F)(F)F)c(F)c2F)cc1` (stereo not shown), `Cn1cc(-c2nnnn2-c2cccc(C(F)(F)F)c2)c(C(F)(F)F)n1` is higher in “hERG current change (%, negative = inhibition) at 10uM” value: -57.4% for the first, -8% for the second.
